Test results published in patent US8067379B2, “Sulfur compounds as inhibitors of hepatitis C virus NS3 serine protease” (Schering Corporation, priority 2004, dated 2011).
Starred links: 1 amine or outer side, 2 acyl side, 3 side chain; linkers in the order of their positions; H or OH if unused. Non-standard residues stand in square brackets, D forms with d. Residues, ends and D or L forms follow the SMILES beside them. *: point of attachment. Pro(3R,4S-CMe2) = CC1(C)[C@@H]2[C@@H](C(=O)O)NC[C@@H]21; X2 = O=C(C(=O)[*:2])C(CC1CC1)N[*:1]; Phg = N[C@H](C(=O)O)c1ccccc1; Tle = CC(C)(C)[C@H](N)C(=O)O; X4 = CS(=O)(=O)CC1(N*)CCCCC1; CO = O=C([*:1])[*:2]

These compounds were tested against Recombinant heterodimeric HCV NS3/NS4A protease (strain 1a) (Hepatitis C virus genotype 1a, UniProt P27958) (assay: Spectrophotometric assay for HCV serine protease inhibitory activity (chromogenic ester substrates)). Settings: Table 3, sulfide compounds; HCV serine protease; read-out: Ki* range.
Assay type: biochemical

Row | Compound | Ki [nM]
1 | CC(C)[C@@H](CSc1ccccc1)NC(=O)N[C@H](C(=O)N1C[C@H]2[C@@H]([C@H]1C(=O)NC(CC1CCC1)C(=O)C(N)=O)C2(C)C)C(C)(C)C (stereo partly drawn) [Compound 103] | 75 to 250

Same assay, conditions: Table 3, sulfone compounds, rows without Prep. Ex. number; read-out: Ki* (numeric value, unlabelled structures at end of sulfone table, column without head)

Row | Compound | Ki [nM]
2 | C#CCCC(NC(=O)[C@@H]1[C@@H]2[C@H](CN1C(=O)[C@@H](NC(=O)NC1(CS(=O)(=O)C(C)(C)C)CCCCC1)C(C)(C)C)C2(C)C)C(=O)C(=O)NC1CC1C (stereo partly drawn) | 18

Same assay, conditions: Table 3, sulfone compounds; HCV serine protease; read-out: Ki* range

Row | Compound | Ki [nM]
3 | C=CCCNC(=O)C(=O)C(CC1CC1)NC(=O)[C@@H]1[C@@H]2[C@H](CN1C(=O)[C@@H](NC(=O)NC1(CS(C)(=O)=O)CCCCC1)C(C)(C)C)C2(C)C (stereo partly drawn) [Compound 223] | < 75
4 | C#CCCNC(=O)C(=O)C(CCC)NC(=O)[C@@H]1[C@@H]2[C@H](CN1C(=O)[C@@H](NC(=O)NC1(CS(=O)(=O)c3ccccc3)CCCCC1)C(C)(C)C)C2(C)C (stereo partly drawn) [Compound 189] | < 75
5 | C#CCCC(NC(=O)[C@@H]1[C@@H]2[C@H](CN1C(=O)[C@@H](NC(=O)NC1(CS(=O)(=O)c3ccccc3)CC1)C(C)(C)C)C2(C)C)C(=O)C(=O)NCC=C (stereo partly drawn) [Compound 166] | 75 to 250
6 | C=CCNC(=O)C(=O)C(CCC)NC(=O)[C@@H]1C[C@@H](S(C)(=O)=O)CN1C(=O)[C@@H](NC(=O)OC(C)(C)C)C1CCCCC1 (stereo partly drawn) [Compound 301] | < 75
7 | CC(C)C[C@@](C)(CS(=O)(=O)C(C)(C)C)NC(=O)N[C@H](C(=O)N1C[C@H]2[C@@H]([C@H]1C(=O)NC(CC1CC1)C(=O)C(N)=O)C2(C)C)C(C)(C)C (stereo partly drawn) [Compound 300] | 75 to 250
8 | CC1(C)C[C@H]2[C@H](CN(C(=O)[C@@H](NC(=O)NC3(CS(C)(=O)=O)CCCCC3)C3CCCCC3)[C@@H]2C(=O)NC(CC2CC2)C(=O)C(N)=O)S1 (stereo partly drawn) [Compound 225] | 75 to 250
9 | CN(C)C(=O)[C@@H](NC(=O)CNC(=O)C(=O)C(CC1CC1)NC(=O)[C@@H]1[C@@H]2[C@H](CN1C(=O)[C@@H](NC(=O)NC1(CS(C)(=O)=O)CCCCC1)C(C)(C)C)C2(C)C)c1ccccc1 (stereo partly drawn) [Compound 187] ({X4-CO}-[Tle][Pro(3R,4S-CMe2)][X2]G[Phg]-NMe2) | < 75
10 | CC(C)(CS(=O)(=O)c1ccccc1)NC(=O)N[C@H](C(=O)N1C[C@H]2[C@@H]([C@H]1C(=O)NC(CC1CC1)C(=O)C(N)=O)C2(C)C)C(C)(C)C (stereo partly drawn) [Compound 160] | < 75
11 | CC(C)(C)[C@H](NC(=O)NC1(CS(=O)(=O)Cc2ccccc2)CCCCC1)C(=O)N1C[C@H]2[C@@H]([C@H]1C(=O)NC(CC1CC1)C(=O)C(N)=O)C2(C)C (stereo partly drawn) [Compound 190] | < 75
12 | CC(C)(C)[C@H](NC(=O)NC1(CCS(C)(=O)=O)CCCCC1)C(=O)N1C[C@H]2[C@@H]([C@H]1C(=O)NC(CC1CC1)C(=O)C(N)=O)C2(C)C (stereo partly drawn) [Compound 197] | < 75
13 | CC(C)(C)[C@H](NC(=O)NC1(CS(=O)(=O)c2ccccn2)CCCCC1)C(=O)N1C[C@H]2[C@@H]([C@H]1C(=O)NC(CC1CCC1)C(=O)C(N)=O)C2(C)C (stereo partly drawn) [Compound 245] | < 75
14 | CC(C)(C)[C@H](NC(=O)N[C@H](CS(=O)(=O)C(C)(C)C)C1CCCCC1)C(=O)N1C[C@H]2[C@@H]([C@H]1C(=O)NC(CC1CC1)C(=O)C(N)=O)C2(C)C (stereo partly drawn) [Compound 175] | < 75

Same assay, conditions: Table 3A; cells that print a number instead of a class symbol; read-out: Ki* Range

Row | Compound | Ki [nM]
15 | CC(C)(C)[C@H](NC(=O)NC1(CS(=O)(=O)C(C)(C)C)CCCCC1)C(=O)N1C[C@H]2[C@@H]([C@H]1C(=O)N[C@@H](CCC1CC1)C(=O)C(=O)NC1CC1)C2(C)C [Compound 730] | 5.6

Same assay, conditions: Table 3A; class symbols; read-out: Ki* Range

Row | Compound | Ki [nM]
16 | C=CCNC(=O)C(=O)[C@H](CCC1CC1)NC(=O)[C@@H]1[C@@H]2[C@H](CN1C(=O)[C@@H](NC(=O)NC1(CS(=O)(=O)C3(CO)CCCCC3)CCCCC1)C1(C)CCCCC1)C2(C)C [Compound 883-aw] | < 75
17 | CNC(=O)C(=O)[C@H](CCC(F)(F)F)NC(=O)[C@@H]1[C@@H]2[C@H](CN1C(=O)[C@@H](NC(=O)NC1(CS(=O)(=O)C(C)(C)C)CCCCC1)C(C)(C)C)C2(C)C [Compound 883-bv] | < 75
18 | CCCC[C@H](NC(=O)[C@@H]1[C@@H]2[C@H](CN1C(=O)[C@@H](NC(=O)NC1(CS(=O)(=O)C3(C)CCOCC3)CCCCC1)C(C)(C)C)C2(C)C)C(=O)C(=O)NCC [Compound 883-cg] | < 75
19 | C=CCNC(=O)C(=O)C(CC1CC1)NC(=O)[C@@H]1[C@@H]2[C@H](CN1C(=O)[C@H](CS(=O)(=O)C(C)(C)C)NC(=O)NC1(CS(=O)(=O)C(C)(C)C)CCCCC1)C2(C)C (stereo partly drawn) [Compound 636] | > 250
20 | CC1([C@H](NC(=O)NC2(CS(=O)(=O)C(C)(C)C)CCCCC2)C(=O)N2C[C@H]3[C@@H]([C@H]2C(=O)NC(CCC(F)(F)F)C(=O)C(=O)NC2CC2)C3(C)C)CCCCC1 (stereo partly drawn) [Compound 515] | < 75
21 | CC1(C)[C@@H]2[C@@H](C(=O)NC(CCCF)C(=O)C(=O)NC3CC3)N(C(=O)[C@@H](NC(=O)NC3(CS(=O)(=O)C(C)(C)C)CCCCC3)C3CCCCC3)C[C@@H]21 (stereo partly drawn) [Compound 602] | < 75
22 | CC(C)CC(NC(=O)[C@@H]1[C@@H]2[C@H](CN1C(=O)[C@@H](NC(=O)NC1(CS(=O)(=O)C(C)(C)C)CCCCC1)C(C)(C)C)C2(C)C)C(=O)C(=O)NC1CC1 (stereo partly drawn) [Compound 573] | 75 to 250
23 | CCCC(NC(=O)[C@@H]1[C@@H]2[C@H](CN1C(=O)[C@@H](NC(=O)NC1(C3CCCS3(=O)=O)CCCCC1)C(C)(C)C)C2(C)C)C(=O)C(=O)NC1CC1 (stereo partly drawn) [Compound 617] | < 75
24 | CC(C)(C)[C@H](NC(=O)NC1(CS(=O)(=O)C(C)(C)C)CCCCC1)C(=O)N1C[C@H]2[C@@H]([C@H]1C(=O)NC(CC1CC1)C(=O)C(=O)NC1CC1)C2(C)C (stereo partly drawn) [Compound 500] | < 75
25 | CCCCC(NC(=O)[C@@H]1[C@@H]2[C@H](CN1C(=O)[C@@H](NC(=O)NC1(CS(=O)(=O)C(C)(C)C)CCCCC1)C1(C)CCCCC1)C2(C)C)C(=O)C(=O)NCc1nccs1 (stereo partly drawn) [Compound 601] | < 75
26 | CCCNC(=O)C(=O)C(CC1CCC1)NC(=O)[C@@H]1[C@@H]2[C@H](CN1C(=O)[C@@H](NC(=O)NC1(C3CCCS3(=O)=O)CCCCC1)C(C)(C)C)C2(C)C (stereo partly drawn) [Compound 664] | < 75
27 | CCCC[C@H](NC(=O)[C@@H]1[C@@H]2[C@H](CN1C(=O)[C@@H](NC(=O)NC1(CS(=O)(=O)C(C)(C)COC)CCCCC1)C(C)(C)C)C2(C)C)C(=O)C(=O)NC1CC1 [Compound 767] | < 75
28 | C=CCNC(=O)C(=O)C(CCCC)NC(=O)[C@@H]1CC2(CN1C(=O)[C@@H](NC(=O)NC1(CS(=O)(=O)C(C)(C)C)CCCCC1)C(C)(C)C)SCCCS2 (stereo partly drawn) [Compound 658] | < 75
29 | C=C(F)CNC(=O)C(=O)C(CC1CC1)NC(=O)[C@@H]1[C@@H]2[C@H](CN1C(=O)[C@@H](NC(=O)NC1(CS(=O)(=O)C(C)(C)C)CCCCC1)C(C)(C)C)C2(C)C (stereo partly drawn) [Compound 427] | < 75
30 | CCNC(=O)C(=O)[C@H](CCC1CC1)NC(=O)[C@@H]1[C@@H]2[C@H](CN1C(=O)[C@@H](NC(=O)NC1(CS(=O)(=O)C3(C)CCOCC3)CCCCC1)C(C)(C)C)C2(Cl)Cl [Compound 883-dz] | < 75
31 | CCCC(NC(=O)[C@@H]1[C@@H]2[C@H](CN1C(=O)[C@@H](NC(=O)NC1(CS(=O)(=O)C(C)(C)C)CCCCC1)C(C)(C)C)C2(C)C)C(=O)C(=O)NCCOC (stereo partly drawn) [Compound 496] | < 75
32 | CCNC(=O)C(=O)C(CCC1CC1)NC(=O)[C@@H]1[C@@H]2[C@H](CN1C(=O)[C@@H](NC(=O)NC1([C@@H]3CCCS3(=O)=O)CCCCC1)C(C)(C)C)C2(C)C (stereo partly drawn) [Compound 883-eu] | < 75
33 | C=CCNC(=O)C(=O)C(CCC(F)(F)F)NC(=O)[C@@H]1[C@@H]2[C@H](CN1C(=O)[C@@H](NC(=O)NC1(CS(=O)(=O)C(C)(C)C)CCCCC1)C(C)(C)C)C2(C)C (stereo partly drawn) [Compound 503] | < 75
34 | CCCC(NC(=O)[C@@H]1[C@@H]2[C@H](CN1C(=O)[C@@H](NC(=O)NC1(CS(=O)(=O)C(C)(C)C=O)CCCCC1)C1(C)CCCCC1)C2(C)C)C(=O)C(=O)NC1CC1 (stereo partly drawn) [Compound 686] | < 75
35 | CCCC[C@H](NC(=O)[C@@H]1[C@@H]2[C@H](CN1C(=O)[C@@H](NC(=O)NC1(CS(=O)(=O)C(C)(C)C)CCCCC1)C(C)(C)C)C2(Cl)Cl)C(=O)C(=O)NCC [Compound 883-bh] | < 75
36 | C=CCNC(=O)C(=O)C(CCCCF)NC(=O)[C@@H]1[C@@H]2[C@H](CN1C(=O)[C@@H](NC(=O)NC1(CS(=O)(=O)C(C)(C)C)CCCCC1)C1(C)CCCCC1)C2(C)C (stereo in doubt) [Compound 455] | < 75
37 | CC1([C@H](NC(=O)NC2(CS(=O)(=O)C(C)(C)C)CCCCC2)C(=O)N2C[C@H]3[C@@H]([C@H]2C(=O)NC(CC2CC2)C(=O)C(=O)NC/C=C/C2CC2)C3(C)C)CCCCC1 (stereo partly drawn) [Compound 454] | < 75
38 | C=CCNC(=O)C(=O)C(CCC1CC1)NC(=O)[C@@H]1[C@@H]2[C@H](CN1C(=O)[C@@H](NC(=O)NC1(CS(=O)(=O)CC(F)(F)F)CCCCC1)C(C)(C)C)C2(C)C (stereo partly drawn) [Compound 564] | < 75
39 | CC1([C@H](NC(=O)NC2(C3CCCS3(=O)=O)CCCCC2)C(=O)N2C[C@H]3[C@@H]([C@H]2C(=O)N[C@@H](CCC2CC2)C(=O)C(=O)NC2CC2)C3(C)C)CCCCC1 (stereo partly drawn) [Compound 817] | < 75

Same assay, conditions: Table 4; read-out: Ki* range

Row | Compound | Ki [nM]
40 | CC(C)(C)[C@H](NC(=O)N[C@H](CS(=O)(=O)NCCCCl)C(C)(C)C)C(=O)N1C[C@H]2[C@@H]([C@H]1C(=O)NC(CC1CCC1)C(=O)C(N)=O)C2(C)C (stereo partly drawn) [Compound 1000] | < 75

Same assay, conditions: Table 4A; read-out: Ki* Range

Row | Compound | Ki [nM]
41 | C=CCNC(=O)C(=O)C(CC1CCC1)NC(=O)[C@@H]1[C@@H]2[C@H](CN1C(=O)[C@@H](NC(=O)N[C@H](CS(=O)(=O)N(C)C(C)(C)C)C(C)C)C1(C)CCCCC1)C2(C)C (stereo partly drawn) [Compound 1112] | < 75
42 | C=CCNC(=O)C(=O)C(CCC)NC(=O)[C@@H]1[C@@H]2[C@H](CN1C(=O)[C@@H](NC(=O)N[C@H](CS(=O)(=O)N(C)C(C)(C)C)C(C)(C)C)C1CCCCC1)C2(C)C (stereo partly drawn) [Compound 1105] | 75 to 250
